Measured values: PubChem BioAssay AID1347417 (National Center for Advancing Translational Sciences (NCATS), 2020)
Screen size: about 120,000 compounds; about 5,300 (4.4%) were called active. Inconclusive means that the source gave no clear call. Such entries were picked first, then a sample of the others. Calls follow the shape of the dose curve; as a rule, active = well fitted inhibition curve with a large enough effect; inconclusive = small, poorly fitted or top-dose-only effect; inactive = no such curve, though single readings can be large or run the other way. Where the call is inconclusive, the potency comes from a doubtful curve fit.

Assay: qHTS Primary assay for Inhibitors of Plasmodium falciparum Dd2 growth in vitro; also: nearly all actives have a fitted effect of over 65% in size;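 as to activity, negative = inhibition: plate controls were DMSO vehicle for no effect and reference drug for full effect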
Details: P. falciparum Dd2 growth, SYBR Green, 72 h; activity, negative = inhibition: at 28.9 µM (top of the series) unless noted; series mostly up to 28.9 µM
In short: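 Readout: SYBR Green fluorescence, 485 nm excitation, 535 nm emission, after ~16 h lysis at 37C. Before that, Dd2-infected red cells (2.5% hematocrit) grew 72 h with compound, 29 uM top final concentration.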
Potency is read from the fitted curve at half-maximal effect; tags tell the direction and shape of the fitted curve.

With O[C@H]1CN[C@H](c2nc(-c3ccc(OC(F)(F)F)cc3)no2)C1 as the molecule, how does the “activity, negative = inhibition” value read?
The value was inactive: -4.82% [at 44.1 µM].

For O=C(Cn1ccn2nc(-c3ccccc3)c(CO)c2c1=O)NCc1ccc2c(c1)OCO2, which “activity, negative = inhibition” value is on record?
Its value is inactive: 4.49%.

For CCOCCCn1c(SCC(=O)Nc2ccc(C)cc2)nc2ccccc2c1=O, which Potency is on record?
Its Potency is inconclusive: 17.8 µM [inhibitor, single point].

For Cn1nc(C2CCN(S(=O)(=O)c3ccc4c(c3)CCCC4)CC2)n(C2CCCC2)c1=O, which “activity, negative = inhibition” value is on record?
The value was inactive: -8.75%.

Which Potency does the source give for COCCNc1nc2c([S+](=O)([O-])c3cccnc3)nnn2c2ccccc12 here?
The Potency was inconclusive: 11.2 µM [inhibitor, single point].

For COc1ccc(NC(=O)C2CC(=O)N(c3n[nH]c4ccccc34)C2)c(OC)c1 (stereo unspecified), which “activity, negative = inhibition” value is on record?
The value was inactive: -16%.

With COc1ccc(CN2CCC3(CC2)CN[S+](=O)([O-])c2ccccc2N3)cc1 as the molecule, how does the Potency read?
The Potency was inconclusive: 17.8 µM [inhibitor, single point].

For CC(=O)Nc1ccc(-c2c(-c3ccc4c(c3)OCO4)nn(-c3cc(C)ccc3C)c2OC(C)=O)cc1, which Potency is on record?
Its Potency is inconclusive: 2.51 µM [inhibitor, single point].

For Cn1nc2n(c1=O)CCC(NS(=O)(=O)c1ccc3c(c1)CCCC3)CC2 (stereo unspecified), which “outcome” value is on record?
The value was “inactive”.

For COc1ccc(NC(=O)CN2C(=O)C(c3ccccc3)=NC23CCCCC3)cc1, which “outcome” value is on record?
Its value is “inactive”.

For O=C(Nc1ccccc1F)C1c2ccccc2C(=O)N(Cc2ccccc2)C12CCCC2 (stereo unspecified), which Potency is on record?
The Potency was active: 11.2 µM.

With COC(=O)CCNC(=O)C1CN(S(=O)(=O)c2cccnc2)CC12CCCCC2 (stereo unspecified) as the molecule, how does the “activity, negative = inhibition” value read?
Its value is inactive: -10.1%.

With CCc1ccccc1NC(=O)CCn1ccn2nc3c(c2c1=O)CCCC3 as the molecule, how does the “outcome” value read?
The value was “inactive”.

Which Potency does the source give for COc1ccc(CCNC(=O)CSc2nc(-c3ccc(F)cc3)cc(C(F)(F)F)n2)cc1OC here?
The Potency was inconclusive: 11.2 µM [inhibitor, single point].

Which Potency does the source give for Cc1ccc(NC(=O)CN2C(=O)C3(SCC(=O)N3c3cccc(Cl)c3)c3ccccc32)cc1C (stereo unspecified) here?
Its Potency is inconclusive: 8.91 µM [inhibitor, partial curve].

For Cc1ccc(S(=O)(=O)N2CCN(C3CCN(Cc4ccccn4)C3=O)CC2)c(C)c1 (stereo unspecified), which Potency is on record?
The Potency was inconclusive: 11.2 µM [inhibitor, partial curve, poor fit].

Which “activity, negative = inhibition” value does the source give for CCC(=O)N(C1CCOCC1)C1CCN(Cc2cc(OC)cc(OC)c2)CC1 here?
The value was inactive: 7.65%.

For COC(=O)[C@@H]1Cc2c([nH]c3ccccc23)[C@H]2C[C@H](NC[C@H]3CCCO3)C[C@@H](c3ccccc3F)N21, which “activity, negative = inhibition” value is on record?
The value was inactive: -13.8%.

Which Potency does the source give for COc1ccc(Cn2c(C3CCN(C(=O)Cc4ccc(C)cc4)CC3)n[nH]c2=O)cc1 here?
The Potency was inconclusive: 7.94 µM [inhibitor, partial curve, poor fit].

Which Potency does the source give for O=C1NCc2ccccc2CC12CCCN2CC1CCCCC1 (stereo unspecified) here?
The Potency was inconclusive: 5.01 µM [inhibitor, partial curve, poor fit].

For CC(=O)NC[C@H]1Cn2c(-c3ccc4c(c3)OCCO4)cnc2CO1, which Potency is on record?
The Potency was inconclusive: 31.6 µM [inhibitor, single point].

For CC1=C[C@@H](CNC(=O)c2cnccn2)[C@H](C(C)C)C[C@H]1CC(=O)O, which “activity, negative = inhibition” value is on record?
The value was inactive: 10.4% [at 44.1 µM].

With CC(=O)N1CCCc2cc(S(=O)(=O)N3CCCC(C(=O)Nc4cc(Cl)ccc4C)C3)ccc21 (stereo unspecified) as the molecule, how does the Potency read?
The Potency was inconclusive: 17.8 µM [inhibitor, single point].

For COc1ccc(NC(=O)c2ccc3c(=O)n4nc(Nc5cccc(Cl)c5C)sc4nc3c2)cc1, which Potency is on record?
Its Potency is inconclusive: 11.2 µM [inhibitor, single point].

With COc1ccc(CN2C(=O)O[C@@H]3CN(Cc4cnc(C)[nH]4)C[C@@H]32)cc1OC as the molecule, how does the “activity, negative = inhibition” value read?
Its value is inactive: 0.791%.

Which Potency does the source give for C=Cc1ccc(Cn2c(C(=O)O)c(CNCc3ccccc3)c3ccc(C)cc32)cc1 here?
Its Potency is active: 7.94 µM.

With CN1C(=O)C2(CCN(C(=O)COc3ccc(Cl)cc3)C2)c2ccccc21 (stereo unspecified) as the molecule, how does the Potency read?
The Potency was inconclusive: 10 µM [inhibitor, partial curve, poor fit].

With CC(=O)Nc1ccc(CN2CCCC23Cc2ccccc2CN(C(=O)C(C)C)C3)cc1 (stereo unspecified) as the molecule, how does the Potency read?
The Potency was inconclusive: 10 µM [inhibitor, partial curve].

Which Potency does the source give for O=C1Nc2ccccc2CC12CCCN2C1CCCCC1 (stereo unspecified) here?
The Potency was active: 10 µM.

With CC(=O)Nc1ccc(NC(=O)c2oc3ccc4c(c3c2C)C(=O)CC(C)(C)O4)cc1 as the molecule, how does the Potency read?
The Potency was inconclusive: 5.62 µM [inhibitor, partial curve, poor fit].

For COc1cc(F)ccc1CN1CCCC2(Cc3ccccc3CNC2=O)C1 (stereo unspecified), which Potency is on record?
Its Potency is inconclusive: 0.355 µM [inhibitor, full curve, poor fit].

For O=C(CC1CCCC1)N1CCC(C2CCN(Cc3cccc(F)c3F)CC2)C1 (stereo unspecified), which Potency is on record?
Its Potency is inconclusive: 17.8 µM [inhibitor, single point].

With CC(=O)Nc1cccc2ccc(OCc3nnc(C(=O)N4CCC[C@@H]4c4ccc(Br)cc4)n3Cc3ccccc3)cc12 as the molecule, how does the Potency read?
The Potency was active: 11.2 µM.

Which Potency does the source give for CN1CCOc2c(C(=O)NCc3cccnc3)cc(-c3cccc4[nH]ccc34)cc21 here?
Its Potency is inconclusive: 0.891 µM [inhibitor, full curve, poor fit].

With COc1ccc(Cc2nc3nccc(-c4cccs4)n3n2)cc1 as the molecule, how does the Potency read?
The Potency was inconclusive: 7.94 µM [inhibitor, partial curve, poor fit].

With COc1cccc(CCC(=O)N2CCC3(CC2)C(=O)N(C)c2ccccc23)c1 as the molecule, how does the Potency read?
The Potency was inconclusive: 17.8 µM [inhibitor, single point].

For COc1ccccc1-c1cc([C@H]2CN3CC[C@H]2C[C@@H]3CNS(=O)(=O)c2ccc(NC(C)=O)cc2)n(C)n1, which Potency is on record?
Its Potency is inconclusive: 17.8 µM [inhibitor, single point].

Which “outcome” value does the source give for O=C(c1ccc(C(F)(F)F)cc1)N1CCC2(CC1)COc1ccccc1NC2=O here?
The value was “inactive”.

With COc1ccc(C(=O)N2CCC3(CC2)NCCc2c3[nH]c3ccccc23)cc1F as the molecule, how does the Potency read?
Its Potency is inconclusive: 7.08 µM [inhibitor, partial curve, poor fit].

Which Potency does the source give for Cn1cnc2cc(-c3cccc(C(F)(F)F)c3)cc(C(=O)NCc3cccnc3)c21 here?
Its Potency is inconclusive: 5.62 µM [inhibitor, single point].

With CCNC(=O)N1CCOc2ccc(CCC(=O)NCc3nc4ccccc4n3C)cc2C1 as the molecule, how does the Potency read?
Its Potency is inconclusive: 12.6 µM [inhibitor, single point].
